Measured values taken from PubChem BioAssay AID1347055 (National Center for Advancing Translational Sciences (NCATS), 2019).
Hit rate of the full screen: of about 54,000 compounds, about 120 (0.22%) were called active. The inconclusive results got no clear call from the source; some entries with a clear call stand among them for comparison. The call rests on the fitted dose curve; in most records, active means well fitted inhibition curve with a large enough effect; inconclusive means small, poorly fitted or top-dose-only effect, or effect the other way; inactive means flat fitted curve, though single readings scatter. No potency is given beside an inconclusive call; the fits are too rough.

The compounds below were run against Fumarate hydratase, mitochondrial (Homo sapiens) (UniProt P07954) (assay: Identification of activators of human fumarate hydratase by quantitative high-throughput screening). Conditions: FH coupled MDH/diaphorase resazurin fluorescence, 15 min; series mostly up to 79.9 µM.
Sequence of UniProt P07954 (P07954 whole entry, looked up): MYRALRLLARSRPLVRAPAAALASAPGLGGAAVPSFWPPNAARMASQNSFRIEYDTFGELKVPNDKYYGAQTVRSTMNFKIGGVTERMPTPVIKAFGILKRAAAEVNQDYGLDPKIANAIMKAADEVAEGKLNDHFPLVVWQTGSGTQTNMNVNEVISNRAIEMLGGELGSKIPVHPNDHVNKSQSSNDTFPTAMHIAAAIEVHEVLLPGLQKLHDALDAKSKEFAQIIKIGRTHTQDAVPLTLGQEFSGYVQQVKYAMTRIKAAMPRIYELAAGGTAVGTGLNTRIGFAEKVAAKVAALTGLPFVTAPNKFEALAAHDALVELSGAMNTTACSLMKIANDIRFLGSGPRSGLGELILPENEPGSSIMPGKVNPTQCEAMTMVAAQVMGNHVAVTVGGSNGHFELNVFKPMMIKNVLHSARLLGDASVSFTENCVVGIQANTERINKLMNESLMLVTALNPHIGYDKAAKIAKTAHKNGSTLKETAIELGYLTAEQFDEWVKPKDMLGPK
Further: the screen sought activators but most active calls are inhibition curves; nearly all actives have a fitted effect of over 45% in size.
Potency means the concentration at half of the fitted maximal effect; tags describe the fitted curve by direction and shape.

SMILES	Potency
CSc1cccc(NC(=O)c2cnn(-c3ccc(F)cc3)c2-n2cccc2)c1	inconclusive [inhibitor, partial curve, poor fit]
O=S(=O)(Nc1ccc(O)c(Sc2nc3ccccc3s2)c1)c1cc(Cl)ccc1Cl	active: 15.8 µM
COC(=O)C1(C)CCCC2(C)c3ccc(C(C)C)cc3C(O)C(O)C12 (stereo unspecified)	inactive
CCn1cc(C(=O)NCCC(C)C)c(=O)c2cc(S(=O)(=O)N(C)C3CCCCC3)ccc21	inconclusive [inhibitor, partial curve]
COc1cccc(-c2nc(CS(=O)(=O)CC(=O)N3CCN(c4ccccc4)CC3)c(C)o2)c1	inconclusive [inhibitor, partial curve, poor fit]
CC1CCC(NC(=O)c2ccc(CSc3nc4ccncc4n3Cc3ccc(F)cc3)cc2)CC1 (stereo unspecified)	inconclusive [inhibitor, partial curve]
CCc1ccc(NC(=O)c2cc(S(=O)(=O)NC3CCCCCC3)ccc2F)cc1	inconclusive [inhibitor, single point]
Nc1ccc(C(=O)c2cc3c(ccc4ccccc43)[nH]2)cc1	inactive
CN(c1ccc(F)cc1)S(=O)(=O)N1CCCC(C(=O)NCc2ccccc2Cl)C1 (stereo unspecified)	inactive
CN1C(=O)c2cccc3c(S(=O)(=O)Nc4cccc(C(=O)O)c4)ccc1c23	inconclusive [inhibitor, single point]
O=C(Nc1cc(Cl)cc(Cl)c1)c1cc(S(=O)(=O)NC2CCCC2)ccc1F	inconclusive [inhibitor, partial curve]
COc1cc(S(=O)(=O)NCCc2c(C)[nH]c3ccc(C)cc23)ccc1Br	inconclusive [inhibitor, partial curve, poor fit]
COC1CC(OC2CCC3(C)C(=CCC4C3CCC3(C)C(C(C)O)CCC43O)C2)OC(C)C1OC1OC(C)C(OC2OC(COC3OC(COC4OC(CO)C(O)C(O)C4O)C(O)C(O)C3O)C(O)C(O)C2O)C(OC)C1O (stereo unspecified)	inactive
CCN(c1ccc(OC)cc1)S(=O)(=O)c1ccc2[nH]c3c(c2c1)CCCCC3	inconclusive [inhibitor, single point]
COc1ccc(N2CC(NC(=O)C3CCCCC3)CC2=O)cc1 (stereo unspecified)	inactive
CCOc1ccc(NS(=O)(=O)c2ccc3c(c2)NC(=O)CCS3)cc1	inactive
O=S1(=O)c2ccccc2N(Cc2ccccc2F)c2ccccc21	inconclusive [inhibitor, partial curve]
Cc1ccccc1Cn1c(CN2CCC(C(=O)NCc3ccc(Cl)cc3)CC2)cc2ccccc21	inconclusive [inhibitor, single point]
Cc1ccc(-n2c(C)cc(/C=C(\C#N)C(=O)Nc3ccc(C)c(C)c3)c2C)cc1	inactive
CCc1ccc(OCC(=O)N(Cc2ccc(C(C)C)cc2)C2CCS(=O)(=O)C2)cc1 (stereo unspecified)	inconclusive [inhibitor, partial curve, poor fit]
Cc1cccc2nc(-c3ccccn3)c(Nc3ccccc3)n12	inconclusive [activator, partial curve]

SMILES	Potency
CCOCCCN(Cc1ccco1)C(=O)c1cc2c(s1)-c1c(C)cccc1OC2	inconclusive [inhibitor, single point]
COc1ccc(C2=CC(=O)OC2Cc2ccc(O)cc2)c(O)c1 (stereo unspecified)	inactive
CCc1nn(CCCC(=O)NCc2cc(Br)ccc2OC)c(=O)c2cc3occc3n12	inconclusive [inhibitor, partial curve, poor fit]
O=C1CC(c2ccc(Cl)cc2)c2cc3c(cc2N1)OCCO3 (stereo unspecified)	inactive
CCc1ccccc1NC(=O)C(CC)Oc1ccccc1-c1nnc(-c2ccccc2)o1 (stereo unspecified)	inconclusive [inhibitor, partial curve, poor fit]
COC(=O)c1c(C)cc(OC(=O)c2c(C)cc(OC)cc2OC)cc1O[C@@H]1O[C@H](CO)[C@@H](O)[C@H](O)[C@H]1O	inconclusive [inhibitor, single point]
Cc1ccc(Sc2c(C)nn(C(=O)c3ccc(Br)cc3)c2C)cc1	inactive
COc1ccc(-c2cc(C(C)=O)c(C)n2CCC(=O)Nc2ccc(C)c(Cl)c2)cc1	inconclusive [inhibitor, single point]
CCCOc1ccc(C(=O)Nc2ccc(-c3cc4ccccc4oc3=O)c(C)c2)cc1	inconclusive [inhibitor, partial curve]
CC(C)(C)Sc1c(CC(C)(C)C(=O)O)n(Cc2ccc(Cl)cc2)c2ccc(OCc3ccc4ccccc4n3)cc12	inconclusive [inhibitor, single point]
Cc1c(Cl)cccc1NS(=O)(=O)c1ccc(NS(=O)(=O)c2ccc3c(c2)OCCO3)cc1	inconclusive [inhibitor, partial curve, poor fit]
CCOCCCn1c(=N)c(C(=O)NC(C)c2ccccc2)cc2c(=O)n3cccc(C)c3nc21 (stereo unspecified)	inactive
Cc1ccc2occ(CC(=O)Nc3ccc(Cl)c(C(F)(F)F)c3)c2c1	inconclusive [inhibitor, single point]
Cc1ccc(-c2onc(C)c2C)cc1S(=O)(=O)Nc1cccc(Cl)c1C	inconclusive [inhibitor, partial curve, poor fit]
Cc1nc2c(C(=O)NCCc3ccc(Cl)cc3)c[nH]n2c(=O)c1Cc1ccc(Cl)cc1	inconclusive [inhibitor, single point]
Cc1cccc(C)c1-n1ncc(C(=O)Nc2ccc3c(c2)OCO3)c1C1CCN(C(=O)OC(C)(C)C)CC1	inconclusive [inhibitor, partial curve, poor fit]
CCOc1ccccc1CNC(=O)C1CCCN(c2ncnc3onc(-c4ccc(F)cc4)c23)C1 (stereo unspecified)	inconclusive [inhibitor, full curve]
COc1ccc(-c2cc(=O)c3c(O)cc(O)cc3o2)cc1O	active: 24.3 µM
COc1cccc(CNC(=O)CN(C)S(=O)(=O)c2ccc3[nH]c4c(c3c2)CCCC4)c1	inconclusive [inhibitor, partial curve, poor fit]
CC(C)(C)c1ccc(OCCn2cc(C(=O)c3ccco3)c3ccccc32)cc1	inconclusive [inhibitor, single point]
Cc1ccc(C2=CC(c3ccccc3F)n3c(nc4ccccc43)N2)cc1C (stereo unspecified)	inactive

SMILES	Potency
COc1ccc(S(=O)(=O)c2c(C)c(NS(=O)(=O)c3ccccc3)cc(C)c2O)cc1	inconclusive [inhibitor, partial curve, poor fit]
COc1cc(C(c2c(C)[nH][nH]c2=O)c2c(C)[nH][nH]c2=O)ccc1OC(=O)c1cccc(C)c1	inconclusive [inhibitor, partial curve, poor fit]
Cc1ccc(C2CC(=O)Nc3cc4c(cc32)OCCO4)cc1 (stereo unspecified)	inactive
CCc1cccc(NC(=O)c2cc3c(=O)n(Cc4ccc(OC)cc4)ccc3nc2C)c1	inconclusive [inhibitor, single point]
O=C(NCc1cccs1)c1ccc(Cn2c(SCc3cccc(F)c3)nc3cccnc32)cc1	inconclusive [inhibitor, partial curve, poor fit]
C=C(C)[C@@H]1CC[C@]2(C(=O)O)CC[C@]3(C)C(CCC4[C@]5(C)C(CC[C@]43C)C(C)(C)[C@@H](O)[C@@H]5C(=O)O)C12 (stereo partly specified)	inactive
Cc1ccc(Cn2c(SCc3ccc(C(=O)N4CCCCCC4)cc3)nc3ccncc32)cc1	inactive
COc1ccc(-c2oc3ncn4nc(COc5c(C)cccc5C)nc4c3c2-c2ccc(OC)cc2)cc1	inconclusive [inhibitor, single point]
COCCCNC(=O)C(=O)Nc1c2c(nn1-c1cccc(Cl)c1)CSC2	inconclusive [inhibitor, single point]
CCN(C(=O)c1cc2cc3ccc(OC)cc3nc2o1)c1cccc(C)c1	inconclusive [inhibitor, partial curve]
COc1ccc(CNC(=O)c2nc(Cn3nc(C)c(Br)c3C)no2)cc1OC	inactive
COc1cc(OC)cc(-c2nc(-c3cccc(C)c3)no2)c1	inconclusive [inhibitor, partial curve, poor fit]
Cc1ccc(CCNC(=O)NCc2noc3ccccc23)cc1	inconclusive [inhibitor, partial curve, poor fit]
CC(C)=CCC/C(C)=C/CO[C@@H]1O[C@H](CO[C@@H]2O[C@@H](CO)[C@H](O)[C@H]2O)[C@@H](O)[C@H](O)[C@H]1O	inactive
Cc1ccc(CNCc2ccccc2)s1	inactive
Cc1cc(C)cc(N2CC(c3nc(-c4cccc(Cl)c4)no3)CC2=O)c1 (stereo unspecified)	inconclusive [inhibitor, partial curve, poor fit]
O=C(O)CCc1cc2ccoc2cc1O[C@@H]1O[C@H](CO[C@@H]2OC[C@](O)(CO)[C@H]2O)[C@@H](O)[C@H](O)[C@H]1O	inactive
CCOC(=O)c1cccc(NC(=O)c2ccc3nc(Cc4ccccc4)oc3c2)c1	inconclusive [inhibitor, single point]
CC(C)NCC(O)COc1ccc(COCCOC(C)C)cc1 (stereo unspecified)	inconclusive [activator, single point]
